Measured values: PubChem BioAssay AID1745853 (National Center for Advancing Translational Sciences (NCATS), 2022)
Some of the results follow. Further columns of the screen follow, without active or inactive calls.

Columns and labels:
Assay in all cases: Primary Screen for Target Class Profiling of Small Molecule Inhibitors of Methyltransferases
[1] = biological target: Glycine N-methyltransferase (Homo sapiens) (UniProt Q14749); conditions: purified enzyme, MTase-Glo SAH luminescence; measured here: GNMT inhibition; at 40 µM; stronger effect = lower value
Procedure, shortened: (§1)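 Each enzyme was reacted with SAM and its substrate, with compounds tested once at 40 uM; SAH formed was read by MTase-Glo luminescence.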

[2] = biological target: Guanidinoacetate N-methyltransferase (Homo sapiens) (UniProt Q14353); conditions: purified enzyme, MTase-Glo SAH luminescence; measured here: GAMT inhibition; at 40 µM; stronger effect = lower value
Procedure, shortened: as §1

[3] = biological target: Histamine N-methyltransferase (Homo sapiens) (UniProt P50135); conditions: purified enzyme, MTase-Glo SAH luminescence; measured here: HNMT inhibition; at 40 µM; stronger effect = lower value
Procedure, shortened: as §1

[4] = biological target: Nicotinamide N-methyltransferase (Homo sapiens) (UniProt P40261); conditions: purified enzyme, MTase-Glo SAH luminescence; measured here: NNMT inhibition; at 40 µM; stronger effect = lower value
Procedure, shortened: as §1

[5] = biological target: Phenylethanolamine N-methyltransferase (Homo sapiens) (UniProt P11086); conditions: purified enzyme, MTase-Glo SAH luminescence; measured here: PNMT inhibition; at 40 µM; stronger effect = lower value
Procedure, shortened: as §1
On the % scale 0 is the no-effect control and ±100 the full control effect.

SMILES | activity change, negative = inhibition [1] [%] | activity change, negative = inhibition [2] [%] | activity change, negative = inhibition [3] [%] | activity change, negative = inhibition [4] [%] | activity change, negative = inhibition [5] [%]
C=C1CC23CC1CCC2C12OC(=O)C(C)(CCC1O)C2C3C(=O)O (stereo not given) | -1.68 | -3.12 | 4.88 | -13.5 | -7.29
COc1ccc(C(=O)N2CCC([C@@H]3CNC[C@H]3CO)CC2)cc1 | -0.615 | 0.298 | -0.736 | 3.38 | -5.04
COc1ccc(N2CCN(CCNS(=O)(=O)c3ccc4oc(=O)c5ncn(C)c5c4c3)CC2)cc1 | 0.349 | 2.5 | -12.5 | -4.1 | -0.987
Cc1noc(C)c1C(=O)N1CC(N2C(=O)c3c(c(C)nn3-c3ccccc3)C2C)C1 (stereo not given) | -5.29 | -2.53 | -0.498 | -11.3 | -1.73
Cc1ccc(CNC(=O)C2(C)Cn3nc(C(=O)NCCC(C)C)cc3C(=O)N2C)cc1 (stereo not given) | 5.44 | 1.29 | 4.07 | 10.9 | 4.06
COCC(=O)N1CC(F)(F)C[C@H]1c1nc(-c2cccnc2)no1 | 0.647 | 1.49 | 2.26 | -0.166 | 3.48
COc1cc(CNCCC(C)C)ccc1OCC(O)CN1CCSCC1 (stereo not given) | -5.56 | -12 | -10.2 | -17.5 | -12.9
Cc1cc(C2CCCN2C(=O)c2ccc(F)c(F)c2)on1 (stereo not given) | 0.696 | -2 | 1.45 | -1.97 | 3.37
COc1ccc(CN2C(=O)c3ccc(-c4ccco4)n3CC2(C)C(=O)NC2CCCC2)cc1 (stereo not given) | -10 | 0.445 | -1.01 | -9.35 | -3.39
O=C(c1ccc(NS(=O)(=O)c2cccc3cccnc23)cc1)N1CCN(CC2CC2)CC1 | 2.26 | -5.89 | -2.67 | -18.4 | -9.29
CC1(C(=O)NC2CCCCCCC2)Cn2c(ccc2-c2ccccc2)C(=O)N1Cc1ccc(F)cc1 (stereo not given) | -0.522 | 0 | 5.41 | -4.07 | 2.26
COc1ccc(OC)c2c1cc1n2CC(C)(C(=O)NC2CCCCCC2)N(Cc2ccco2)C1=O (stereo not given) | 0.995 | 4.77 | 2.48 | -7.08 | 0.518
CNS(=O)(=O)c1ccc(Cl)c(-c2nnc(-c3ccccc3)o2)c1 | -13.1 | 0.395 | 3.08 | -4.16 | 1.86
CN1CCCC1c1nc(C2CN(C(=O)c3ccsc3)C2)no1 (stereo not given) | -9.87 | -15.9 | -4.56 | -16 | -9.26
Cc1ccccc1CN1C(=O)c2ccc(-c3ccco3)n2CC1(C)C(=O)NC1CCCC1 (stereo not given) | -5.99 | 2.05 | 2.64 | -5.03 | -1.78
O=c1c2ccccc2nc2n1CCC2O (stereo not given) | 5.02 | 7.38 | 0.116 | -6.71 | 6.52
OCCN1CCN(CCCN2c3ccccc3Sc3ccc(Cl)cc32)CC1 | -3.93 | 8.09 | -4.03 | -23.4 | 2.63
COc1ccc(Cn2c(=O)c3ccccc3n3c(-c4ccc(F)cc4)nnc23)cc1 | -3.79 | 0 | 1.28 | 1.25 | -2.17
CC(C)Cn1c(=O)c2ccccc2n2c(=O)n(CC(=O)NCc3ccccc3Cl)nc12 | -1.3 | -1.91 | 2.12 | -5.81 | -6.14
CC(C)C1c2cccn2CCN1C(=O)NC1CCCCC1 (stereo not given) | 12.5 | 0 | 8.26 | 3.81 | 8.5

SMILES | activity change, negative = inhibition [1] [%] | activity change, negative = inhibition [2] [%] | activity change, negative = inhibition [3] [%] | activity change, negative = inhibition [4] [%] | activity change, negative = inhibition [5] [%]
CC(C)(C)NCc1cc(Nc2ccnc3cc(Cl)ccc23)c2c(c1O)CCCC2 | 3.4 | 5.79 | -0.32 | -10.4 | -2.03
CNC(=O)N1CCC(C2CCN(C(=O)c3cnccn3)C2)CC1 (stereo not given) | -0.702 | 0.334 | 1.11 | 0.693 | 1.51
Cc1occc1C(=O)N1CCC2(CCCN(CC3CCCCC3)C2=O)C1 (stereo not given) | -10.1 | -8.34 | -3.38 | -15.4 | 5.23
O=C(CCCn1ccc2cc(S(=O)(=O)N3CCCC3)ccc21)NCc1ccco1 | 3.77 | 0 | 3.76 | 2.68 | 3.2
CC(C)(C)c1ccc2c(c1)CC[C@H]2NC(=O)Nc1cccc2[nH]ncc12 | -1.97 | -19.3 | 5.7 | -38.4 | -6.29
Cn1c2c(c3ccccc31)C(C(=O)NCc1ccc(F)cc1)N(CCC1=CCCCC1)C(=O)CS2 (stereo not given) | -7.11 | -1.75 | -2.34 | -4.83 | -3.6
O=C(NC1CCCCCC1)c1ccc(CN2C(=O)NC3(CCS(=O)(=O)CC3)C2=O)cc1 | -4.75 | -4.79 | -4.32 | -11.8 | -8.79
O=C(O)CC[C@@H](C(=O)O)N1C(=O)c2ccccc2C1=O | -7.74 | 4.27 | 0.078 | -3.11 | 8.35
COc1ccc(CN(C)Cc2ccoc2)cc1OCC(O)CN1CCCCC1 (stereo not given) | -1.53 | -1.21 | -21.3 | 1.68 | 3.06
C=C1C(=O)OC2CC(C)C(CCC(C)=O)=CCC12 (stereo not given) | -3.72 | -3.84 | 3.76 | -15.5 | 2.05
O=S(=O)(Nc1cccn2nc(C3CC3)nc12)c1cccnc1 | -48.6 | -46.5 | -8.85 | -22.1 | -31.4
Cc1ccc(-c2[nH]ncc2CN2CC[C@@](C)(O)[C@H](N3CCCC3)C2)cc1 | -10.4 | -14 | -13.8 | -24.6 | -12.8
Cc1c(F)cc(C(=O)NC2CC2)cc1-c1c(F)cn2c(C(C)(C)C)nnc2c1F | -3.92 | -9.55 | 4.11 | -19.1 | -12.4
Cc1ccc(CNC(=O)Cn2nc3n(Cc4ccc(C)cc4)c(=O)c4ccccc4n3c2=O)cc1 | -1.17 | 1.53 | 4.35 | 1.86 | -1.08
CC(C)Cn1c(=O)c2ccccc2n2c(CCC(=O)N3CCN(c4ccccc4F)CC3)nnc12 | -14 | 0 | 5.67 | -33 | 1.15
Cc1ccc(N2C(=O)c3cc(-c4ccco4)nn3CC2(C)C(=O)NC2CCCCCC2)cc1 (stereo not given) | -5.29 | 3.07 | -3.78 | -2.57 | -6.89
CCN1CCN(C(=O)N[C@@H](C(=O)N[C@@H]2C(=O)N3[C@@H]2SC(C)(C)[C@@H]3C(=O)O)c2ccccc2)C(=O)C1=O | 1.4 | 4.05 | 11.9 | -7.39 | 6.15
O=C(NCCc1c[nH]c2ccc(Cl)cc12)c1ccc(CN2C(=O)CCn3nccc32)cc1 | -20.2 | -9.36 | -5.33 | -15 | -26.2
Clc1ccc(-c2cnc3n2C[C@H](CNC2CCCC2)OC3)cc1 | -8.39 | -9.71 | -18.3 | -17.9 | -14.7
CCn1ccc(C(=O)N2CC[C@H](c3nc(C)no3)[C@H](NC(=O)C3CC3)C2)n1 | -0.292 | -1.78 | -1.79 | -5.44 | -0.457
